In the supplement of paper PMC11417369:
± gives the standard deviation of the averaged measurements. This is one part of the list.

The sequences below were run on PfAP2-I AP2 domain 3 (GST-tagged) (assay: gcPBM binding intensity (ln(normalized median fluorescence intensity)); higher = stronger DNA binding).
Method in brief: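 The highest Masliner-normalised natural-log median intensity across replicate spots of either probe orientation is reported as binding intensity. GST-tagged P. falciparum DNA-binding domains expressed in E. coli were applied for 1 h to an Agilent 4 × 180k array of primer-extended double-stranded 36-bp intergenic genomic probes plus negative controls, and bound protein was detected with Alexa488 anti-GST antibody and scanned at 488 nm.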

Sequence | gcPBM binding intensity (ln)
TGGGTATATATAAAAGGTACACAAAATGAAGATATA [XGTACX_site4994] | 8.02 ± 0.64
TTTTCTGTGTTTTTGGGTACACACAAATAGCTTGTA [XGTACX_site8553] | 8.14 ± 0.44
TAATTTCTTATGTATTGTACAAATAATATATTATAT [XGTACX_site1037] | 7.78 ± 0.35
GAGCCCAAAAAATTAGGTACGTATAAAGAGGTATTT [XGTACX_site5348] | 7.78 ± 0.7
TTTGTGTTGTATTTTTGTACATAAAATAAACTTAAA [XGTACX_site4637] | 7.96 ± 0.26
TCTTTTTTCATATTTTCACACATGTCTTTATATTTA [CACACA_site6025] | 8.28 ± 0.65
AGGAAAATTTTATTTGCACACATTATTACGTCTAAA [CACACA_site2337] | 9.9 ± 0.4
CATATATATATTGGAAGTACATATTTAATATTCATT [XGTACX_site3545] | 7.68 ± 0.53
ACATGTAATATAATGTGTACATATACAAAGGTATAT [XGTACX_site4145] | 7.74 ± 0.58
ATAAAGTATATTATATGTACATATATATATTATATA [XGTACX_site1345] | 7.71 ± 0.28
AGATGAGAAATATATACACACAATAATACCTATTTA [CACACA_site876] | 7.5 ± 0.64
AAAATAAAAAAAATAAATAAAAAAAATAATAATAAA [CACACA_negctrl_site563] | 7.25 ± 0.57
TCATAAATATAAAGTGTGCACTTGAATAATATGTAT | 9.74
TAAATAAATCTGTGCTTGCACTTTTTTTGTTATTTT | 8.06 ± 0.58
ATATAAACATATAATAGTACACTTCGATAATTTTAT [XGTACX_site3321] | 7.8 ± 0.52
ATTTAACATATAAAATGTACATATATATATATATTT [XGTACX_site2525] | 7.87 ± 0.11
GTACCATCAAAATAAATATATATATATATATATTTT [GTGCAC_negctrl_site646] | 7.72 ± 0.38
CTCTTTTCTTATAATACACACAGTAATATTTATATA [CACACA_site6824] | 8.38 ± 0.43
AATAAAAAAAATTTCTGTACATATATTTATTATATA [XGTACX_site1883] | 7.46 ± 0.46
CAAACCCACCAACACACACACACAAAAATGATTAAA [CACACA_site2432] | 8.03 ± 0.23
ATATATTTTGATTGCACACAGAATTTAAATCATGAT [CACACA_site2343] | 9.27 ± 0.15
GAAGATATATAATAATTCATAGTTTTTTAATTTAAA [TGCATGCA_negctrl_site295] | 7.21 ± 0.19
TACTTTTTTATTTGGTGTACAAATAAAATCATAATG [XGTACX_site1802] | 8.24 ± 0.057

Sequence | gcPBM binding intensity (ln)
ATTATTTTTTTTGAAGTGCAATATTATTTTTAATCA | 10.6 ± 0.54
TATATTTTTATGTGTGTGCACAAAATAACAAAATAT [GTGCAC_site9596] | 11.1 ± 0.35
TATACTACCCAGAGCTGTACAAAATAATAATAAGTT [XGTACX_site1045] | 8.02 ± 0.82
ATGGTTATATTTGAAGTGCAAAAAAAAATATATGTA | 9.93 ± 0.099
ATGTGGATTTTATAATGTACATATGATATTATTTTG [XGTACX_site7930] | 7.73 ± 0.45
CAATTCAATATATATACACACACACTATTAATAATT [CACACA_site9256] | 7.98 ± 0.44
GTTAAGTGGATATATACACACATATGCAATACATGA [CACACA_site7427] | 8.19 ± 0.44
ATTCCTTTATTATCACGTACTTATAAAATATAGTAT [XGTACX_site7498] | 8.35 ± 0.42
TTTTAATAAATCATTTTCCTAATATTTATATTTGCT [TGCATGCA_negctrl_site232] | 7.29 ± 0.61
TTTTTCATTTAGCTTTTACACACTATATATTATTGA [CACACA_site7888] | 7.94 ± 0.86
ATAAACAGATAAAAGGGTACACACATATATACATGT [XGTACX_site452] | 7.96 ± 0.47
TTATATATATATTGTTCACACATAATATAAATATTT [CACACA_site5835] | 7.45 ± 0.49
TTAAATAAAATAAAAACATGCACACTTTATTTTTTT [TGCATGCA_site719] | 8.5 ± 0.54
CATATAAAATAATTCACACAAATATACAAATACCCA [CACACA_site5340] | 7.79 ± 0.39
TATTTAATTTTTAAATGTACATATAAAATAATATAT [XGTACX_site2422] | 7.9 ± 0.23
AAAAAAAATTTCTTCTGTACGCATAAATTTTTATTA [XGTACX_site8721] | 8.05 ± 0.17
TTTTTCAGAAAAGAAACACACATATATATATTTATA [CACACA_site2372] | 7.63 ± 0.39
AATGATAATATTTCCTTCTTTTTTACTTCTTTCTTT [CACACA_negctrl_site776] | 7.79 ± 0.67
AAAATGGTTTATAAATGTACATATATTATATATAAC [XGTACX_site7959] | 7.79 ± 0.43
CCTATCCAGACATATACACACATATCTATTTATATA [CACACA_site5001] | 8.01 ± 0.57
TTTACTTTCCCAAGTTGTACTGCTTCTAAGCTTTTT [XGTACX_site2708] | 7.63 ± 0.58
TATAAAAAATAATACACACACATGGCGACAAAATAA [CACACA_site2420] | 8.09 ± 0.64
ACGTTTTATAATTAATGTACAAATATTAAAATTGCA [XGTACX_site7869] | 7.86 ± 0.44

Sequence | gcPBM binding intensity (ln)
GAATAAATTAAAAATGCACACTTTGATGGGTACATT [CACACA_site5220] | 8.76 ± 0.014
TATATTTGCAGTAATAATAATTATTATAAAAGATAA [XGTACX_negctrl_site547] | 8.6 ± 0.28
TATGAATGGTTAAGTACACACATATTAAGATATGTA [CACACA_site5852] | 7.53 ± 0.3
TTATTTATTTTAAATTCACACATCGTGCTATTATAT [CACACA_site5003] | 8.85 ± 0.11
TCATATATTTATGTATGTACATATATATATAGATTA [XGTACX_site380] | 7.4 ± 0.2
AAAAATATAATATAATGTACACAAAAAAAAAAATTC [XGTACX_site3657] | 7.87 ± 0.59
TTTTTATAACGTAATAAATAAAACGTCTATACTATA [XGTACX_negctrl_site176] | 7.51 ± 0.5
TATATTATTATAATTTGTACATATCTAATTATATAT [XGTACX_site5342] | 7.63 ± 0.23
TAAAGATATTATTTTTGTACATATTGATATAATGAA [XGTACX_site6571] | 7.52 ± 0.35
AATTAGACATAATATACACACATATATTATAGATAT [CACACA_site7297] | 7.54 ± 0.58
ATATAACATAGACACACACACATATAAATATATTAT [CACACA_site7865] | 7.96 ± 0.45
CTTTATAAAATAAGAGTGCGTTATATTGAATTGTAT [GTGCAC_site9390] | 10.9 ± 0.6
ATATAAGATTTAAGAAGTACAATTATACAGTAGATC [XGTACX_site7501] | 8.08 ± 0.49
ATATATATATAGTGCACACTTAAGAATATAAAGAGG [CACACA_site1151] | 11.5 ± 0.3
CTATAAATATTTTATTGTACACACTTTTTATGAATG [XGTACX_site6711] | 8.2 ± 0.47
AAAATTTTTAGTTATACACACAACATAGAAAATATT [CACACA_site328] | 7.86 ± 0.54
CACATACACCCATACACACACATATATATTAAGATA [CACACA_site4459] | 8.23 ± 0.11
AATACATACAGACACACACACACATATATATATATA [CACACA_site3558] | 9.36 ± 0.18
AAACTTAATATCGGTACACACACAAGATAAGAATTA [CACACA_site8200] | 7.75 ± 0.56
ATGATAAACATGGATACACACATATAGATTGCATAT [CACACA_site6843] | 7.8 ± 0.5
ATTTCTCTATCGTAATGTACATAAAAAAGAAAAACA [XGTACX_site6374] | 7.86 ± 0.47
TTATTAAATTCATAAGTGCATTTATGATTAATTTTT [GTGCAC_site9749] | 9.86
ATATATATTAACAATACACACGTGTATACCTTATTG [CACACA_site5258] | 8.06 ± 0.68

Sequence | gcPBM binding intensity (ln)
TTCATCTTAAAATTGGGTACATAACACAAAGTATAA [XGTACX_site1894] | 7.87 ± 0.55
TTACATGTAAAAGGTACACACATTATGTATACAAAT [CACACA_site1117] | 8.14 ± 0.52
TTTTTTTTTTTTTTTTGTCCGTACTGCTTTGTGTTT [XGTACX_site3687] | 8.11 ± 0.7
TCTAATTACAAAAACATACACACAAAAAAAAAAAAA [CACACA_site3783] | 7.98 ± 0.83
ATGTACAAAATAAGCACACACAAAAAAAAAAAAAAT [CACACA_site2998] | 8.29 ± 0.16
TCAAAAATAAAGATCACACATATATATATATATATA [CACACA_site4381] | 9.53 ± 0.66
CCTATAAATGCATTCACACATATATATTTATATTAT [CACACA_site6086] | 8.09 ± 0.41
GTAAGAAACAGACACACACACATATATATATATATA [CACACA_site794] | 9.44 ± 0.56
AATAATTTTATCGGTACACACTGTATGCATAATATT [CACACA_site4364] | 8.15 ± 0.66
GAACAGTTTGTTTAGTGTACTTTTTTTTTTTTTTTT [XGTACX_site8881] | 8.81 ± 0.44
CTTAATTTAATGAAATGTACATATAAAAATATTATA [XGTACX_site3303] | 7.62 ± 0.35
TTTGATCGATGGATTTAACACACAAAAAAAAAAAAA [CACACA_site9279] | 7.98 ± 0.55
TACCAAATTTATTCTTGTACATATATATATATATAT [XGTACX_site4832] | 9.35 ± 0.43
AATATAGAAATAAATATATCACATTTGTGTTTAAAC [XGTACX_negctrl_site68] | 7.44 ± 0.54
TTTATGACTTGAAAAAGTACACATATATTTATGCAA [XGTACX_site5451] | 7.91 ± 0.2
TTGTTTTCTTTTTCTTTTCTTTTTCTTTTTTCTTTT [GTGCAC_negctrl_site629] | 7.55 ± 0.73
TATATATATATAAAGACACACATCTATAGAATGTTA [CACACA_site2557] | 9.21 ± 0.36
TATTTATATTTATACACACACACAAAAAAAAAAAAA [CACACA_site6817] | 8.16 ± 0.57
TATATATATATACCTTGTACTTACATTCGCATATAA [XGTACX_site2466] | 9.32 ± 0.42
AAAAAAAAAAAAAAAGCACACACACCGATGTGTATA [CACACA_site8224] | 8.79 ± 0.38
